Drawing on article PMC5892938, this text covers binding signal (log2 fold change) for 103 sequences.

The other results are listed elsewhere or left out. Construct or isoform of the protein are uncertain.

The target of the assay is GST-SBP-ILF3 (Homo sapiens) (UniProt Q12906). As to the kind of experiment: targeted RNA Bind-n-Seq. The note with it: RBNS binding buffer: 25 mM Tris pH 7.5, 150 mM KCl, 3 mM MgCl2, 0.1% Tween, 0.5 mg/mL BSA, 1 mM DTT; 27 nM protein, 750 pM RNA pool; temperature not stated; high values mean tight binding; sequences stand for … in GGGUAAAAGCGAGGUGAA…CGGGACAAGUAUUAUGGG
Turning to “UUCUUCUCUCCUCCGCCGGAGGGGGGAAGA [ctspaired]”, the binding signal (log2 fold change) was found to be 0.0417.
Turning to “UUUUUUUUUUGAGACCGAGUCGGUCUCCUG [tttttgagapaired]”, the binding signal (log2 fold change) amounted to 0.35.
On to “GGUUGUGGUGUUGGCAUCUAACACCAUAAC [gtspaired]”, for which the binding signal (log2 fold change) was -0.681.
As to “UUUUUUUUUUGAGAGCGAUCCGCUCUUCUA [tttttgagapaired]”, the binding signal (log2 fold change) was -0.193.
Turning to “UUUUUUUUUUGAGACGGAAUCCGUUUCCAG [tttttgagapaired]”, the binding signal (log2 fold change) turned out to be 0.367.
For “UUUUUUUUUUGAGAUCGUCACGAUCUCCUA [tttttgagapaired]” the value was 0.0488.
As to “UUUUUUUUUUGAGAGUGUAACACUCUCCAG [tttttgagapaired]”, the binding signal (log2 fold change) amounted to 0.223.
In the case of “GGUUGUGGUGUUGGCCUCUAACACCACAGC [gtspaired]”, the binding signal (log2 fold change) is -0.771.
Regarding “GGUUGUUGUGUUGGUCUCUAACACAACGAC [gtspaired]”, the binding signal (log2 fold change) was -0.517.
Take “GUGGUUGGUGUUGGAAUCUAACACCGACUA [gtspaired]”: the binding signal (log2 fold change) was -0.668.
Turning to “GGUGGUUGUGUUGGCGCCUAACACAACUAC [gtspaired]”, the binding signal (log2 fold change) was -0.458.
For “GUUGUGUGUGUUGGCAUCUAACACACGCAA [gtspaired]” the value was -0.776; for “GUUGUGUGUGUUGGCCCCUAACACACACGA [gtspaired]”, -0.109; for “UUUUUUUUUUGAGACUGGCACAGUUUCCGG [tttttgagapaired]”, 0.614.
On to “GUGUGUUGUGUUGGCUCCUAACACAGCGCA [gtspaired]”, for which the binding signal (log2 fold change) was -0.535.
In the case of “GGUGUUGGUGUUGGAGCCUAACACCGAUAC [gtspaired]”, the binding signal (log2 fold change) was -0.691.
“GUGGUGUGUGUUGGACCCUAACACAUACCA [gtspaired]”: the binding signal (log2 fold change) was -0.504.
Regarding “GUUGUGUGUGUUGGAUCCUAACACACGCGA [gtspaired]”, the binding signal (log2 fold change) was -0.44.
For the sequence “UUCUCUCUUCCUCCGAUGGAGGGAGAGGGA [ctspaired]”, the binding signal (log2 fold change) was -0.413.
To “UUUUUUUUUUGAGAGGGGGCCCCUCUCCUA [tttttgagapaired]” belongs 1.18; to “GUGGUGUGUGUUGGAGCCUAACACAUACCA [gtspaired]”, -0.88; to “UUUUUUUUUUGAGAUGGGCCCCAUCUCCGG [tttttgagapaired]”, 0.851.
In the case of “UUUUUUUUUUGAGAGCGAAGCGCUCUCCGG [tttttgagapaired]”, the binding signal (log2 fold change) is -0.053.
In the case of “GUGUGUUGUGUUGGAGCCUAACACAGCACG [gtspaired]”, the binding signal (log2 fold change) is -0.568.
To “UUUUUUUUUUGAGAGGGAAGCCCUCUCCUG [tttttgagapaired]” belongs 0.394; to “UUUUUUUUUUGAGACGGCGACCGUCUCCGG [tttttgagapaired]”, 0.488; to “UUUUUUUUUUGAGAUCGGGUCGAUCUCCUG [tttttgagapaired]”, 0.387.
In the case of “GGUGGUUGUGUUGGCAUCUAACACAGCCGC [gtspaired]”, the binding signal (log2 fold change) is -0.623.
With “GUGUGGUGUGUUGGUCCCUAACACAUCACG [gtspaired]”, the binding signal (log2 fold change) was -0.623.
On to “UUUUUUUUUUGAGAGGGUCUCCCUCUCCGG [tttttgagapaired]”, for which the binding signal (log2 fold change) turned out to be 0.318.
With “UUUUUUUUUUGAGACGGCGGCCGUUUCCUA [tttttgagapaired]”, the binding signal (log2 fold change) worked out at 0.849.
For “GUGUGUGGUGUUGGUGCCUAACACCACGCG [gtspaired]”, the binding signal (log2 fold change) was -0.157.
For “GUGUGGUGUGUUGGCUUCUAACACACCGCG [gtspaired]” the value was -0.545; for “GUGUGUGGUGUUGGAACCUAACACCGCGCG [gtspaired]”, -0.722.
As for “UUUUUUUUUUGAGACUGUAGCAGUCUUCUA [tttttgagapaired]”, the binding signal (log2 fold change) amounted to 0.529.
In the case of “UUUUUUUUUUGAGACGGAUACCGUCUUCUA [tttttgagapaired]”, the binding signal (log2 fold change) is 0.338.
To “GUUGUGUGUGUUGGAGCCUAACACACACGA [gtspaired]” belongs -0.181; to “UUUUUUUUUUGAGAGGGACUCCCUCUCCAG [tttttgagapaired]”, 0.575.
As to “UUUUUUUUUUGAGACGGCGACUGUCUCCUG [tttttgagapaired]”, the binding signal (log2 fold change) was 1.14.
On to “UUUUUUUUUUGAGAGCGAGCCGUUCUCCGG [tttttgagapaired]”, for which the binding signal (log2 fold change) was 0.416.
Regarding “UUUUUUUUUUGAGAUGGAUGCCAUCUCCUG [tttttgagapaired]”, the binding signal (log2 fold change) is 0.177.
Take “UUUUUUUUUUGAGACUGAGCCAGUCUCCUA [tttttgagapaired]”: the binding signal (log2 fold change) was determined as 0.372.
For “UUUUUUUUUUGAGACGGUUGCCGUCUUCUA [tttttgagapaired]” the value was 0.363; for “GUGUGUGGUGUUGGCUCCUAACACCGCGCA [gtspaired]”, -0.546; for “UUUUUUUUUUGAGAGCGGCACGCUCUCCUG [tttttgagapaired]”, 0.0299.
“GUGGUUGGUGUUGGACUCUAACACCAGCCG [gtspaired]”: the binding signal (log2 fold change) was -1.03.
For “UUUUUUUUUUGAGAUGGGAUCCAUCUCCUG [tttttgagapaired]”, the binding signal (log2 fold change) is 0.161.
In the case of “GUGUGUUGUGUUGGCGUCUAACACAGCGCA [gtspaired]”, the binding signal (log2 fold change) was -0.559.
With “UUUUUUUUUUGAGACGGCAACCGUCUCCGG [tttttgagapaired]”, the binding signal (log2 fold change) is 0.553.
With “GUGUUGUGUGUUGGCCUCUAACACACAGCA [gtspaired]”, the binding signal (log2 fold change) was -0.585.
As for “UUUUUUUUUUGAGAUGGGCUCCAUCUUCUG [tttttgagapaired]”, the binding signal (log2 fold change) turned out to be 0.693.
Take “UUUUUUUUUUGAGAGCGGGACGUUCUCCUA [tttttgagapaired]”: the binding signal (log2 fold change) was 0.473.
For “UUUUUUUUUUGAGAGUGUGUCAUUCUCCUA [tttttgagapaired]” the value was 0.179.
For “GUGUGUUGUGUUGGCUUCUAACACAGCGCA [gtspaired]” the value was -0.791; for “GUGUGUGGUGUUGGUAUCUAACACCGCGCG [gtspaired]”, -0.509.
Regarding “GGUUGGUGUGUUGGCAUCUAACACAUCAGC [gtspaired]”, the binding signal (log2 fold change) is -0.588.
“UUUUUUUUUUGAGAUGGCCGCCAUCUCCUA [tttttgagapaired]”: the binding signal (log2 fold change) came out at 0.644.
For the sequence “GUGGUGUGUGUUGGUCCCUAACACACAUCA [gtspaired]”, the binding signal (log2 fold change) was -0.727.
With “UUUUUUUUUUGAGACUGGGACAGUCUUCUA [tttttgagapaired]”, the binding signal (log2 fold change) worked out at 0.247.
For the sequence “UUUUUUUUUUGAGACCGCAGCGGUCUCCUA [tttttgagapaired]”, the binding signal (log2 fold change) amounted to 0.508.
For “UUUUUUUUUUGAGAUGGCGACCAUUUCCAG [tttttgagapaired]”, the binding signal (log2 fold change) worked out at 0.745.
For the sequence “UUUUUUUUUUGAGAGCGGGCCGCUCUCCAG [tttttgagapaired]”, the binding signal (log2 fold change) amounted to 0.634.
With “UUUUUUUUUUGAGAGGGGCCCCCUCUCCGG [tttttgagapaired]”, the binding signal (log2 fold change) worked out at 1.09.
For “UUUUUUUUUUGAGAUGGCUACCAUCUUCUA [tttttgagapaired]” the value was 0.228; for “UUUUUUUUUUGAGAUGGUAUCCAUCUCCUA [tttttgagapaired]”, 0.00176.
For “UUCUCUCUUCCUCCACAGGAGGAGGAGGGA [ctspaired]”, the binding signal (log2 fold change) is -0.592.
Turning to “GUUGUGUGUGUUGGAUCCUAACACACGCAA [gtspaired]”, the binding signal (log2 fold change) is -0.073.
“GUGUGGUGUGUUGGUGUCUAACACACUAUA [gtspaired]”: the binding signal (log2 fold change) was -0.737.
To “GUGUGGUGUGUUGGAGCCUAACACACUACG [gtspaired]” belongs -0.858; to “UUUUUUUUUUGAGACGGAGUCUGUCUUCUG [tttttgagapaired]”, 0.438; to “UUUUUUUUUUGAGACCGAGUCGGUCUCCAG [tttttgagapaired]”, 0.93.
With “UUUUUUUUUUGAGACGGACACCGUCUCCUA [tttttgagapaired]”, the binding signal (log2 fold change) turned out to be 0.453.
To “UUUUUUUUUUGAGAGCGGAACGCUCUCCGG [tttttgagapaired]” belongs -0.212; to “UUUUUUUUUUGAGAUGGUGUCCAUUUCCUA [tttttgagapaired]”, 0.556.
Consider “UUUUUUUUUUGAGACGGUUUCCGUCUCCAG [tttttgagapaired]”, for which the binding signal (log2 fold change) came to 0.323.
“UUUUUUUUUUGAGAUCGGGUCGAUCUUCUA [tttttgagapaired]”: the binding signal (log2 fold change) turned out to be 0.162.
Consider “UUUUUUUUUUGAGACCGUAUCGGUCUCCGG [tttttgagapaired]”, for which the binding signal (log2 fold change) turned out to be 0.128.
As for “UUUUUUUUUUGAGAUCGUAUCGAUCUCCUA [tttttgagapaired]”, the binding signal (log2 fold change) worked out at 0.0622.
Turning to “UUUUUUUUUUGAGAUGGGUGCCAUCUCCAG [tttttgagapaired]”, the binding signal (log2 fold change) came to 0.407.
Take “UUUUUUUUUUGAGAUCGAGGCGAUUUCCAG [tttttgagapaired]”: the binding signal (log2 fold change) came out at 0.433.
In the case of “UUUUUUUUUUGAGACGGUAGCCGUUUCCGG [tttttgagapaired]”, the binding signal (log2 fold change) is 0.627.
With “UUUUUUUUUUGAGACUGGGUCAGUCUUCUG [tttttgagapaired]”, the binding signal (log2 fold change) was 0.532.
Regarding “UUUUUUUUUUGAGACGGCUGCCGUCUCCUA [tttttgagapaired]”, the binding signal (log2 fold change) was determined as 0.918.
As for “UUUUUUUUUUGAGAACGGUACGUUCUCCUA [tttttgagapaired]”, the binding signal (log2 fold change) turned out to be 0.313.
For “UUUUUUUUUUGAGACGGUGACCGUCUCCUG [tttttgagapaired]” the value was 0.448; for “GUGUUGUGUGUUGGCAUCUAACACACAACG [gtspaired]”, -0.593; for “UUUUUUUUUUGAGACCGAAGCGGUCUCCUG [tttttgagapaired]”, 0.376.
Take “UUUUUUUUUUGAGAUGGUUGCCAUCUCCGG [tttttgagapaired]”: the binding signal (log2 fold change) was determined as 0.363.
For “UUUUUUUUUUGAGACGGGGGCCGUUUCCAG [tttttgagapaired]”, the binding signal (log2 fold change) stood at 0.92.
For “UUUUUUUUUUGAGACUGCGGCAGUCUCCUA [tttttgagapaired]” the value was 0.588.
Take “UUUUUUUUUUGAGAGGGAAACCCUCUCCGG [tttttgagapaired]”: the binding signal (log2 fold change) is -0.0119.
In the case of “UUUUUUUUUUGAGACGGCAGCCGUCUCCUG [tttttgagapaired]”, the binding signal (log2 fold change) was 0.92.
In the case of “GUGGUUGGUGUUGGCUUCUAACACCAAUCA [gtspaired]”, the binding signal (log2 fold change) was -0.6.
For “UUUUUUUUUUGAGACUGAUUCAGUCUCCUA [tttttgagapaired]” the value was -0.0489.
For the sequence “UUUUUUUUUUGAGAUGGUAGCCAUCUUCUA [tttttgagapaired]”, the binding signal (log2 fold change) was -0.00089.
For “GUUGGUGGUGUUGGUCUCUAACACCGCCAG [gtspaired]” the value was -0.268.
Consider “GUGGUGUGUGUUGGACUCUAACACACAUCG [gtspaired]”, for which the binding signal (log2 fold change) was -0.622.
To “UUUUUUUUUUGAGAACGGUGCGUUCUCCGG [tttttgagapaired]” belongs 0.305.
As for “UUUUUUUUUUGAGACAGUAAUAAUAAAAAA [ttttgagaunpaired]”, the binding signal (log2 fold change) worked out at 0.0861.
For “UUUUUUUUUUGAGAGCGGUCCGCUCUCCGG [tttttgagapaired]” the value was 0.798.
As to “UUUUUUUUUUGAGAGUGAUGCACUCUCCAG [tttttgagapaired]”, the binding signal (log2 fold change) came to 0.217.
For the sequence “UUUUUUUUUUGAGAUCGAUUCGAUCUUCUA [tttttgagapaired]”, the binding signal (log2 fold change) is -0.362.
As for “UUCCUUCUUCCUCCAAUGGAGGGAGAGGGA [ctspaired]”, the binding signal (log2 fold change) was -0.62.
